Source: the antibiotic and cytotoxicity screens of Wong et al. (2023)
This is one part of the list.

System: HSkMC (human skeletal muscle cells)
Assay: cytotoxicity call (relative viability < 0.9)
Details: 10 µM

Row | SMILES | cytotoxicity call
1 | Cc1ccc(S(=O)(=O)N(C)C[C@@H]2Oc3ccc(NS(=O)(=O)c4cn(C)cn4)cc3C(=O)N([C@@H](C)CO)C[C@@H]2C)cc1 | inactive
2 | CO[C@H]1CN(C)C(=O)c2cc(NS(=O)(=O)CC(F)(F)F)ccc2OC[C@@H](C)N(Cc2ccccn2)C[C@H]1C | inactive
3 | C[N+]1(C)C[C@H](O)[C@H](C(=O)O)C1 | inactive
4 | COc1ccc(S(=O)(=O)Nc2ccc3c(c2)CC(=O)N([C@H](C)CO)C[C@H](C)[C@H](CN(C)CC2CC2)O3)cc1 | inactive
5 | O=C(C[C@H]1C[C@H]2c3cc(NC(=O)c4cccnc4)ccc3O[C@H]2[C@@H](CO)O1)NCc1cc(F)ccc1F | inactive
6 | O=C(CNCCO)Nc1ccc(F)c(Cl)c1 | inactive
7 | C[C@H](CO)N1C[C@H](C)[C@@H](CN(C)S(=O)(=O)c2ccc(F)cc2)Oc2c(NC(=O)C3CCOCC3)cccc2C1=O | inactive
8 | COc1ccc(S(=O)(=O)N(C)C[C@H]2OCCCC[C@@H](C)Oc3ccc(NC(=O)C4CCCCC4)cc3C(=O)N([C@H](C)CO)C[C@@H]2C)cc1 | inactive
9 | COc1ccc(S(=O)(=O)Nc2ccc3c(c2)CC(=O)N([C@@H](C)CO)C[C@H](C)[C@H](CN(C)Cc2ccc(Oc4ccccc4)cc2)O3)cc1 | active
10 | C[C@@H]1CN([C@H](C)CO)C(=O)c2cccc(NC(=O)c3cnccn3)c2O[C@H]1CN(C)C(=O)Nc1ccc(F)cc1 | inactive
11 | COc1ccc(NC(=O)Nc2ccc3c(c2)C(=O)N([C@@H](C)CO)C[C@H](C)[C@@H](CN(C)S(=O)(=O)c2c(C)noc2C)OCCCC[C@H](C)O3)cc1 | inactive
12 | Cc1cc(C(=O)Nc2cccc3c2O[C@H](CN(C)C(=O)Nc2ccccc2)[C@H](C)CN([C@H](C)CO)C3=O)n(C)n1 | inactive
13 | Cc1noc(C)c1NC(=O)N(C)C[C@H]1OCCCC[C@@H](C)Oc2ccc(NC(=O)C3CCCCC3)cc2C(=O)N([C@H](C)CO)C[C@H]1C | inactive
14 | C[C@@H]1CCCCO[C@H](CN(C)S(=O)(=O)c2cccs2)[C@H](C)CN([C@@H](C)CO)C(=O)c2cc(NC(=O)Nc3ccc4c(c3)OCO4)ccc2O1 | inactive
15 | O=C(C[C@@H]1CC[C@H]2[C@@H](COC[C@H](O)CN2S(=O)(=O)c2ccc(Cl)cc2)O1)N[C@H]1CCN(Cc2ccccc2)C1 | inactive
16 | CC(C)CC#Cc1ccc2c(c1)O[C@@H](CN(C)C(=O)c1cccnc1)[C@@H](C)CN([C@@H](C)CO)S2(=O)=O | inactive
17 | COc1ccc(CSCCN)cc1Cl | inactive
18 | COc1ccccc1CN1C(=O)c2ccccc2[C@@]2(Cc3ccccc3N(CC(F)(F)F)C2=O)[C@@H]1c1ccc(CO)cc1 | inactive
19 | Cc1noc(C)c1NC(=O)N(C)C[C@@H]1OCCCC[C@H](C)Oc2ccc(NC(=O)NC3CCCCC3)cc2C(=O)N([C@H](C)CO)C[C@@H]1C | inactive
20 | C[C@H]1CN([C@@H](C)CO)C(=O)Cc2cc(NC(=O)Cn3cnnn3)ccc2O[C@@H]1CN(C)C(=O)Nc1ccc(C(F)(F)F)cc1 | inactive
21 | CCS(=O)(=O)N1C[C@]2(CCN(CC2)C(=O)Nc2c(noc2C)C)c2c(n(c3cc(ccc23)OC)C)[C@H]1CO | inactive
22 | Cc1ccc(S(=O)(=O)Nc2ccc3c(c2)C(=O)N([C@@H](C)CO)C[C@H](C)[C@H](CN(C)Cc2ccc(C(F)(F)F)cc2)OCCCC[C@H](C)O3)cc1 | inactive
23 | C[C@H](CO)N1C[C@H](C)[C@H](CN(C)C(=O)Nc2ccc(C(F)(F)F)cc2)OCc2cn(nn2)CCCC1=O | inactive
24 | C[C@@H]1CN([C@@H](C)CO)C(=O)c2cc(NC(=O)Nc3ccccc3)ccc2O[C@H]1CN(C)C(=O)Nc1cccc2ccccc12 | inactive
25 | COc1ccccc1CNC(=O)C[C@@H]1C[C@@H]2c3cc(NC(=O)Nc4ccc(C(F)(F)F)cc4)ccc3O[C@@H]2[C@H](CO)O1 | inactive
26 | OCCCn1cnnc1 | inactive
27 | C[C@@H]1CCCCO[C@H](CN(C)C(=O)C2CCCCC2)[C@H](C)CN([C@@H](C)CO)C(=O)c2cc(NC(=O)C3CCCCC3)ccc2O1 | inactive
28 | CC(C)(CO)C(O)C(=O)NCCC(=O)NCCSSCCNC(=O)CCNC(=O)C(O)C(C)(C)CO (stereo not given) | inactive
29 | O=C(O)c1oc2ccccc2c1CSc1ccc(Cl)cc1 | inactive
30 | C[C@@H]1CN([C@H](C)CO)C(=O)c2cccc(NS(=O)(=O)c3cn(C)cn3)c2O[C@@H]1CN(C)Cc1ccc2c(c1)OCO2 | inactive
